B1: Human VEGF-B167 (ligand, UniProt P49765-2 22-188, looked up)
chain: PVSQPDAPGHQRKVVSWIDVYTRATCQPREVVVPLTVELMGTVAKQLVPSCVTVQRCGGCCPDDGLECVPTGQHQVRMQILMIRYPSSQLGEMSLEEHSQCECRPKKKDSAVKPDSPRPLCPRCTQHHQRPDPRTCRCRCRRRSFLRCQGRGLELNPDTCRCRKLRR
notes: UniProt P49765 is printed for the VEGF-B167 peptides; Bought recombinant protein; source: bought: PeproTech (100-20B)

Protein sequences, listed by entry. Tags and fused reporters are not part of them. Lines headed by an entry give the natural chain unless they say otherwise; changes in a name come on top. Residues count along the entry.
UniProt P11362: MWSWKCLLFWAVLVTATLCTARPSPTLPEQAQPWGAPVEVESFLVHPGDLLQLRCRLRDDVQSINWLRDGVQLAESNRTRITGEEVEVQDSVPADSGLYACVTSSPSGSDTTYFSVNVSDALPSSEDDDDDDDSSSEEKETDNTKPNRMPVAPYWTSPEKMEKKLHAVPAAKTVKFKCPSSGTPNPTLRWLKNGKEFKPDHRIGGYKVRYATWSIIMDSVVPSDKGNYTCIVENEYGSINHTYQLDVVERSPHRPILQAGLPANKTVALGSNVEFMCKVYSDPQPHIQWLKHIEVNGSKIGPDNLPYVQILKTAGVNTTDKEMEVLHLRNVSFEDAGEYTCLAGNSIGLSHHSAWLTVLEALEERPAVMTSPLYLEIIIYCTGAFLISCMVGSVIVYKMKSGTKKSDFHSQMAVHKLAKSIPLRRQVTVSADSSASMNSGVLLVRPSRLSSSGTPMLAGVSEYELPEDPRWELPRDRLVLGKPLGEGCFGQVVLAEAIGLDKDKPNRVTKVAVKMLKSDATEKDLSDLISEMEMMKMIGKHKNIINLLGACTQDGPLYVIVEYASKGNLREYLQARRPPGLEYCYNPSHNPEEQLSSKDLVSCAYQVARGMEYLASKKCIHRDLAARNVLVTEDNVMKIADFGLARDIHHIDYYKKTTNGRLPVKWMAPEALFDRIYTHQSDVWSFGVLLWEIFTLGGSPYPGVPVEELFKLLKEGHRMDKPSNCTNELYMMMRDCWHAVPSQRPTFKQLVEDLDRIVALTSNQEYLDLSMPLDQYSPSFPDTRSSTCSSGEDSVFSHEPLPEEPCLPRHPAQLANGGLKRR
FGFR1 (endogenous in HRECs) (human (endogenous in HRECs)): residues 22-822 of P11362
UniProt P09038, residues 143-288: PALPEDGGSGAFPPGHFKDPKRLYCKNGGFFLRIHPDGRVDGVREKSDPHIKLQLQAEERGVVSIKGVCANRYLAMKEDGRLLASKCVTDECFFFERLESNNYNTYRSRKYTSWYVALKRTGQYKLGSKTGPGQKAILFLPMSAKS
UniProt P16092, residues 22-822: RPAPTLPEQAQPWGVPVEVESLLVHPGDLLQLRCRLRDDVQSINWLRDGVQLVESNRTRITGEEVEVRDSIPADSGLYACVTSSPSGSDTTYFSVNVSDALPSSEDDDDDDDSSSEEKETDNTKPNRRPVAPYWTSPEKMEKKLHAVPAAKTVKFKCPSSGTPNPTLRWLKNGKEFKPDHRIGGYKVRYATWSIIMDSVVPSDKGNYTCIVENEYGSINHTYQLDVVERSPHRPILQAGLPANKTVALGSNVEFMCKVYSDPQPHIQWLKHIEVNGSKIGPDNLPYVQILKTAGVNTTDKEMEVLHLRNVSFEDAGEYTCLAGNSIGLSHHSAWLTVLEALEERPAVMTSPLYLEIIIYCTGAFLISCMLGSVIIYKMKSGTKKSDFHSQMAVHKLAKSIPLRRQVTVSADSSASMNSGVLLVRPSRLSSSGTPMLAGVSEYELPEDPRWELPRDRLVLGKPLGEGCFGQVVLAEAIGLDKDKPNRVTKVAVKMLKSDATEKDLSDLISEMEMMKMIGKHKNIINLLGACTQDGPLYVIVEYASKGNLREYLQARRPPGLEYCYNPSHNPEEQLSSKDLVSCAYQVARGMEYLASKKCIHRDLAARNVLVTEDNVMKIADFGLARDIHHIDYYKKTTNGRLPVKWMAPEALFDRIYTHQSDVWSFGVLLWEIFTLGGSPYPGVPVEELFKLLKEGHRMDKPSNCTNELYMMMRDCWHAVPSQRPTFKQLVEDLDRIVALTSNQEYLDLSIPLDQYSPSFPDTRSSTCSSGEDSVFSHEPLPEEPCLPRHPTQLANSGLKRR
UniProt P17948, residues 27-1338: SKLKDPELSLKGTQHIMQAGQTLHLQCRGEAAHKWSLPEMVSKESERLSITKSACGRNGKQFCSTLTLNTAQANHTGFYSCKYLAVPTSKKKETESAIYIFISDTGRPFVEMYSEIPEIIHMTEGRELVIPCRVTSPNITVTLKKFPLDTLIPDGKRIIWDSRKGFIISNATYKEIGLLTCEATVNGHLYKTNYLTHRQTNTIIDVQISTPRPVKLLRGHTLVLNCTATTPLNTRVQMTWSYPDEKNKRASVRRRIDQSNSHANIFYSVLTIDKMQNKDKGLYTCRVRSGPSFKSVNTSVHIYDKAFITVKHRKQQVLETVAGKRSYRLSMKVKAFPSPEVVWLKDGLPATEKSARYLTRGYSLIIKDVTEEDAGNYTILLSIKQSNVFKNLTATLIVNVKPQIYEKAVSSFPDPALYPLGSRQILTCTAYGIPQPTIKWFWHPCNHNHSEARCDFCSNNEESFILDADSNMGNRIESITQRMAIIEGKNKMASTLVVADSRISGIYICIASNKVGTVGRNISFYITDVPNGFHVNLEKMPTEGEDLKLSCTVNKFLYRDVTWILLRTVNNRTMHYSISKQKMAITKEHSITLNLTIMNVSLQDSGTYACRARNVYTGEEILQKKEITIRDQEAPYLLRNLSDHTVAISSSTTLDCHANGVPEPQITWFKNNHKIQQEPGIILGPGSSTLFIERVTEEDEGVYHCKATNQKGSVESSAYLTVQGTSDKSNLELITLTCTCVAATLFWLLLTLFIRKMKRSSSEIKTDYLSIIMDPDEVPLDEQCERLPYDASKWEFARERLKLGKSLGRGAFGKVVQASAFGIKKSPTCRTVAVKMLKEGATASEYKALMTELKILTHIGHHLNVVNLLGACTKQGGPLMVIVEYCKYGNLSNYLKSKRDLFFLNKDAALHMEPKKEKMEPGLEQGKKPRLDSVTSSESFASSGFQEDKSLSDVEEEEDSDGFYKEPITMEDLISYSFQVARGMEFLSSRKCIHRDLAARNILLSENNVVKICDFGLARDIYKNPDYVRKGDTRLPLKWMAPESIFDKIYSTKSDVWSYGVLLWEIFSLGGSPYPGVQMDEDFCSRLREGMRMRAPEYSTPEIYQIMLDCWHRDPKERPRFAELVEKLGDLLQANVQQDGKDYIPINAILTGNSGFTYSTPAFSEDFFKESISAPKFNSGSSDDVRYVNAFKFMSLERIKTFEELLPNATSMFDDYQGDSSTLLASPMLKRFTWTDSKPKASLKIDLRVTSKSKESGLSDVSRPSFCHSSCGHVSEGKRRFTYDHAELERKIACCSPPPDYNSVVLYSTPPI

Results are given in words; binding and its absence hold for the method and conditions named. For some assays here: Binding seen in cells or lysates may run through a third protein. Some entries that bind do so weakly or less than the wild type.

For assay [1], the target named is wild-type FGFR1 overexpressed in HUVECs (UniProt P11362). As to the kind of experiment: co-IP; immunoprecipitation from HUVECs overexpressing wild-type or mutant FGFR1, with or without VEGF-B.
The target in assay [2] is FGFR1-Fc (Z03223, Genscript) (UniProt P11362). As to the kind of experiment: SPR; competition: VEGF-B immobilised at 6900 RU on CM5; FGFR1-Fc (200 nM) flowed with 6.25 nM BSA, FGF2 or PlGF, 10 µl/min; both purified. On the technique in general: In SPR one partner is held on a chip, and binding of the other changes the refractive index at the surface.
The assay “Human VEGF-B167” addresses B1. The description is as above.
In assay [3] the target is FGFR1-Fc (Z03223, Genscript) (UniProt P11362). As to the kind of experiment: ELISA; FGFR1-Fc (20 nM) captured by Fc specific anti-human IgG on the plate; biotinylated FGF2 or biotinylated VEGF-B peptides (200 nM) added for 2 h; streptavidin-HRP; both purified.
The target in assay [4] is FGFR1 (endogenous in HRECs) (human (endogenous in HRECs)) (UniProt P11362). Description: proximity ligation; in situ PLA (Duolink II) in HRECs treated 30 min with VEGF-B or PlGF (50 ng/ml), fixed and permeabilised; rabbit anti-FGFR1 and mouse anti-VEGFR1.
A further assay concerns the target FGF2 (PeproTech) (human) (UniProt P09038). Description: ELISA; competition: FGF2 coated (2.5 µg/ml); FGFR1-Fc (0.4 nM) incubated 1 h with VEGF-B or PlGF (3.125-100 nM) before the FGF2-coated wells; bound FGFR1-Fc detected by anti-human IgG-HRP; both purified. In general terms: In an ELISA, binding on a coated surface is turned into a signal by an enzyme label.
The target of assay [5] is FGFR1-Fc (658-FR, R&D Systems) (UniProt P11362). Described as above.
For assay [6], the target named is FGFR1 (mouse, endogenous) (mouse (endogenous in mouse tissues)) (UniProt P16092). Description: proximity ligation; in situ PLA on mouse retinae after intravitreal injection of VEGF-B or PlGF.
The target is the same in assay [7]. Description: co-IP; immunoprecipitation and Western blot from mouse brain, lung and heart, and from retinae after intravitreal injection of VEGF-B or PlGF. A general note: A western blot detects proteins with antibodies after separation by electrophoresis.

Turning to “VEGFR1 (in HUVECs) (from UniProt P17948 27-1338) (receptor)”, the binding result in [1] was “binds”. Turning to “FGF2 (PeproTech) (from UniProt P09038 143-288) (ligand)”, in assay [2], the binding result is recorded as “binds”. With “FGFR1-Fc (Z03223, Genscript) (from UniProt P11362 22-376) (Fc fusion)”, the binding result with Human VEGF-B167 is listed as “binds”. Take “biotinylated FGF2 (BFF-H4117, Acro Biosystems) (from UniProt P09038 143-288) (ligand)”: in assay [3], the binding entry is “binds”. Take “VEGFR1 (endogenous in HRECs) (from UniProt P17948 27-1338) (receptor)”: the binding entry in assay [4] was “binds”. For the molecule “FGFR1-Fc (658-FR, R&D Systems) (from UniProt P11362 22-376) (Fc fusion)”, the binding entry with FGF2 (PeproTech) (human) was “binds”.

Take QLVPSCVTVQRCGGCCPDDG (biotin (position not given)) [VEGF-B synthetic peptide 4]: in assay [3], the binding result is “binds weakly”. Still for that read-out and setting: in the case of CRCRCRRRSFLRCQGRGLEL (biotin (position not given)) [VEGF-B synthetic peptide 10] it was “binds”; in that of CPDDGLECVPTGQHQVRMQI (biotin (position not given)) [VEGF-B synthetic peptide 5], “no binding (tested: 200 nM)”. Same read-out and setting: in the case of RGLELNPDTCRCRKLRR (biotin (position not given)) [VEGF-B synthetic peptide 11] it was “binds”. On the same count and under the same terms, in the case of GEMSLEEHSQCECRPKKKDS (biotin (position not given)) [VEGF-B synthetic peptide 7] it was “binds weakly”. As to VVVPLTVELMGTVAKQLVPS (biotin (position not given)) [VEGF-B synthetic peptide 3], in [3], the binding result is on record as “no binding (tested: 200 nM)”. As to B1, in assay [5], the binding entry is “binds”. On to CPRCTQHHQRPDPRTCRCRC (biotin (position not given)) [VEGF-B synthetic peptide 9], for which, in [3], the binding entry is “binds weakly”.

B2: VEGFR1 (mouse, endogenous) (receptor, UniProt P35969 23-1333)
chain: YGSGSKLKVPELSLKGTQHVMQAGQTLFLKCRGEAAHSWSLPTTVSQEDKRLSITPPSACGRDNRQFCSTLTLDTAQANHTGLYTCRYLPTSTSKKKKAESSIYIFVSDAGSPFIEMHTDIPKLVHMTEGRQLIIPCRVTSPNVTVTLKKFPFDTLTPDGQRITWDSRRGFIIANATYKEIGLLNCEATVNGHLYQTNYLTHRQTNTILDVQIRPPSPVRLLHGQTLVLNCTATTELNTRVQMSWNYPGKATKRASIRQRIDRSHSHNNVFHSVLKINNVESRDKGLYTCRVKSGSSFQSFNTSVHVYEKGFISVKHRKQPVQETTAGRRSYRLSMKVKAFPSPEIVWLKDGSPATLKSARYLVHGYSLIIKDVTTEDAGDYTILLGIKQSRLFKNLTATLIVNVKPQIYEKSVSSLPSPPLYPLGSRQVLTCTVYGIPRPTITWLWHPCHHNHSKERYDFCTENEESFILDPSSNLGNRIESISQRMTVIEGTNKTVSTLVVADSQTPGIYSCRAFNKIGTVERNIKFYVTDVPNGFHVSLEKMPAEGEDLKLSCVVNKFLYRDITWILLRTVNNRTMHHSISKQKMATTQDYSITLNLVIKNVSLEDSGTYACRARNIYTGEDILRKTEVLVRDSEAPHLLQNLSDYEVSISGSTTLDCQARGVPAPQITWFKNNHKIQQEPGIILGPGNSTLFIERVTEEDEGVYRCRATNQKGAVESAAYLTVQGTSDKSNLELITLTCTCVAATLFWLLLTLFIRKLKRSSSEVKTDYLSIIMDPDEVPLDEQCERLPYDASKWEFARERLKLGKSLGRGAFGKVVQASAFGIKKSPTCRTVAVKMLKEGATASEYKALMTELKILTHIGHHLNVVNLLGACTKQGGPLMVIVEYCKYGNLSNYLKSKRDLFCLNKDAALHMELKKESLEPGLEQGQKPRLDSVSSSSVTSSSFPEDRSVSDVEGDEDYSEISKQPLTMEDLISYSFQVARGMEFLSSRKCIHRDLAARNILLSENNVVKICDFGLARDIYKNPDYVRRGDTRLPLKWMAPESIFDKVYSTKSDVWSYGVLLWEIFSLGGSPYPGVQMDEDFCSRLKEGMRMRTPEYATPEIYQIMLDCWHKDPKERPRFAELVEKLGDLLQANVQQDGKDYIPLNAILTRNSGFTYSTPTFSEDLFKDGFADPHFHSGSSDDVRYVNAFKFMSLERIKTFEELSPNSTSMFEDYQLDTSTLLGSPLLKRFTWTETKPKASMKIDLRIASKSKEAGLSDLPRPSFCFSSCGHIRPVQDDESELGKESCCSPPPDYNSVVLYSSPPA
Turning to B2, the binding result in [6] and in assay [7] was “binds” each time. As to SWIDVYTRATCQPREVVVPL (biotin (position not given)) [VEGF-B synthetic peptide 2], the binding result in assay [3] is “binds weakly”. As to VRMQILMIRYPSSQLGEMSL (biotin (position not given)) [VEGF-B synthetic peptide 6], the binding entry in assay [3] is recorded as “no binding (tested: 200 nM)”.

As for PVSQPDAPGHQRKVVSWIDV (biotin (position not given)) [VEGF-B synthetic peptide 1], in assay [3], the binding result is given as “no binding (tested: 200 nM)”. For the molecule KKKDSAVKPDSPRPLCPRCT (biotin (position not given)) [VEGF-B synthetic peptide 8], the binding entry in assay [3] is “binds weakly”.

The record behind these values is article PMC10435562, “VEGF-B prevents excessive angiogenesis by inhibiting FGF2/FGFR1 pathway” (Signal Transduction and Targeted Therapy, 2023).
